Reference: a collection of fitness landscapes (doi:10.1016/j.celrep.2020.107928)
In all, about 81,000 sequences were measured (“one-hybrid fitness for binding NBS DNA”: median about -0.1, highest 2% from about 0.36 on). The list shows a part of the results.

B1: Caulobacter ParB omega fusion; a variant is named by its letters at X, in order, B8GW30 (parent)
chain: MESVVVGEPGMSEGRRGLGRGLSALLGEVDAAPAQAPGEQLGGSREAPIEILQRNPDQPRRTFREEDLEDLSNSIREKGVLQPILVRPSPDTAGEYQIVAGERAWRAAQRAGLKTVPIMVRELDDLAVLEIGIIENVQRADLNVLEEALSYKVLMEKFERTQENIAQTIGKSXSHVANXMRLLXLPDEVQSYLVSGELTAXHARAIAAAADPVALAKQIIEGGLSVRETEALARKAPNLSAGKSKGGRPPRVKDTDTQALESDLSSVLGLDVSIDHRGSTGTLTITYATLEQLDDLCNRLTRGI

Variants of: B1
Assay: one-hybrid fitness for binding NBS DNA (the Noc-binding site; scaled: cognate 1, non-cognate 0); higher = stronger binding
Conditions: with NBS DNA site
How it was run: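 Selection: bacterial one-hybrid in E. coli USO, HIS3 reporter with the site 19 bp from the promoter, 48 hours at 37°C on M9-minus-histidine plus 0.1 mM IPTG and 5 mM 3-AT. Libraries were Caulobacter ParB with four randomised specificity codons, sequenced on Illumina before and after selection. Fitness is the rescaled log change in variant-to-wild-type read ratio, anchored to the cognate and non-cognate sites.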

Variant	one-hybrid fitness for binding NBS DNA
HSLS	≤ 0.2
NFST	≤ 0.2
ILRS	≤ 0.2
QLNI	≤ 0.2
RHCM	≤ 0.2
QKLY	≤ 0.2
LDPL	≤ 0.2
SAGY	≤ 0.2
ILFC	≤ 0.2
HIRE	≤ 0.2
TFQF	≤ 0.2
VKVG	≤ 0.2
HPYS	≤ 0.2
YWNT	≤ 0.2
KKIR	≤ 0.2
TLFE	≤ 0.2
QEWC	≤ 0.2
KYGR	≤ 0.2
SRWC	≤ 0.2
WKFI	≤ 0.2
KRFI	≤ 0.2
LHET	≤ 0.2
LGRI	≤ 0.2
SMMW	≤ 0.2

Variant	one-hybrid fitness for binding NBS DNA
SLGA	≤ 0.2
LVNS	≤ 0.2
QYPM	≤ 0.2
RKQL	≤ 0.2
HTSV	≤ 0.2
IYGL	≤ 0.2
YQTV	≤ 0.2
GDRR	≤ 0.2
CATD	≤ 0.2
GDVW	≤ 0.2
GGYR	≤ 0.2
KKRE	≤ 0.2
GFHR	≤ 0.2
SHCS	≤ 0.2
KVHC	≤ 0.2
HHNR	≤ 0.2
RLCS	0.334
EPTV	≤ 0.2
QTPI	≤ 0.2
DNNG	≤ 0.2
RNIV	≤ 0.2
VRIC	≤ 0.2
TDIK	≤ 0.2
YQHC	≤ 0.2

Variant	one-hybrid fitness for binding NBS DNA
GFTM	≤ 0.2
YLAP	≤ 0.2
GLPC	≤ 0.2
LRDF	≤ 0.2
KPMG	≤ 0.2
TYWG	≤ 0.2
HVGK	≤ 0.2
QWNR	0.304
DAEY	≤ 0.2
HPGM	≤ 0.2
GCVR	≤ 0.2
ERDR	≤ 0.2
WSHG	≤ 0.2
CTRE	≤ 0.2
RSDH	≤ 0.2
ETWN	≤ 0.2
EIHV	≤ 0.2
SATQ	≤ 0.2
RQWL	≤ 0.2
RRWH	0.401
TMCR	≤ 0.2
LQQG	≤ 0.2
PYNN	≤ 0.2
HDHS	≤ 0.2

Variant	one-hybrid fitness for binding NBS DNA
RSYP	≤ 0.2
REPR	≤ 0.2
LWKA	≤ 0.2
DMTE	≤ 0.2
LSSI	≤ 0.2
YAVT	≤ 0.2
TRFE	≤ 0.2
LEPR	≤ 0.2
LCIR	≤ 0.2
VAPI	≤ 0.2
RKTN	≤ 0.2
CTVL	≤ 0.2
PWSA	≤ 0.2
PCQT	≤ 0.2
FQSM	≤ 0.2
PDNF	≤ 0.2
LFAS	≤ 0.2
KPFG	≤ 0.2
NRQF	≤ 0.2
HTLT	≤ 0.2
PGGT	≤ 0.2
GTIS	≤ 0.2
TWFN	≤ 0.2
RKTQ	≤ 0.2

Variant	one-hybrid fitness for binding NBS DNA
LRCT	≤ 0.2
GTNK	≤ 0.2
YIMW	≤ 0.2
PFDC	≤ 0.2
MAWT	≤ 0.2
KWNV	≤ 0.2
VAVW	≤ 0.2
CDDV	≤ 0.2
RNGI	≤ 0.2
NTHI	≤ 0.2
ESVF	≤ 0.2
NEHS	≤ 0.2
AKNE	≤ 0.2
QIII	≤ 0.2
RCKV	0.23
SWLT	≤ 0.2
KSKV	≤ 0.2
FPAS	≤ 0.2
FVWR	≤ 0.2
HSLQ	≤ 0.2
QPSG	≤ 0.2
VPKR	≤ 0.2
EKCS	≤ 0.2
PLRY	≤ 0.2

Variant	one-hybrid fitness for binding NBS DNA
CKWG	≤ 0.2
TNSC	≤ 0.2
ESLL	≤ 0.2
NAST	≤ 0.2
HRCV	≤ 0.2
NNMA	≤ 0.2
CAVD	≤ 0.2
QLHA	≤ 0.2
CLLW	≤ 0.2
SDNM	≤ 0.2
QYCA	0.242
YFQC	≤ 0.2
SPGC	≤ 0.2
QIHR	0.493
PTRR	0.227
DNLG	≤ 0.2
SFSQ	≤ 0.2
PVDF	≤ 0.2
MMRT	≤ 0.2
NSNY	≤ 0.2
VMHT	≤ 0.2
WMSW	≤ 0.2
GACS	≤ 0.2
CHGT	≤ 0.2

Variant	one-hybrid fitness for binding NBS DNA
GGQG	≤ 0.2
FLQV	≤ 0.2
ERRY	≤ 0.2
GRLF	≤ 0.2
RAYV	≤ 0.2
RRRE	0.219
NEES	≤ 0.2
VRHF	≤ 0.2
VYMG	≤ 0.2
RYVK	≤ 0.2
RKIE	≤ 0.2
MEPV	≤ 0.2
DSAY	≤ 0.2
CSIR	≤ 0.2
GSKQ	≤ 0.2
FDKG	≤ 0.2
SGVR	≤ 0.2
TCAK	≤ 0.2
GRQQ	≤ 0.2
MVLQ	≤ 0.2
YRQG	≤ 0.2
LMRC	≤ 0.2
LQIC	≤ 0.2
PAHP	≤ 0.2

Variant	one-hybrid fitness for binding NBS DNA
NPNT	≤ 0.2
SGMV	≤ 0.2
TCCS	≤ 0.2
AKTS	≤ 0.2
YLSN	≤ 0.2
ARSR	≤ 0.2
FDHP	≤ 0.2
ALDF	≤ 0.2
LNPV	≤ 0.2
VIST	≤ 0.2
AADG	≤ 0.2
HHNC	≤ 0.2
YLPG	≤ 0.2
LFIC	≤ 0.2
QDVG	≤ 0.2
WKSC	≤ 0.2
EASN	≤ 0.2
IWAL	≤ 0.2
MSLD	≤ 0.2
QFTW	≤ 0.2
INIR	≤ 0.2
GDVS	≤ 0.2
APQS	≤ 0.2
DHDR	≤ 0.2

Variant	one-hybrid fitness for binding NBS DNA
RAGD	≤ 0.2
DLRL	≤ 0.2
LVAQ	≤ 0.2
NYRT	≤ 0.2
EYTF	≤ 0.2
KLAA	≤ 0.2
PFPG	≤ 0.2
MYET	≤ 0.2
NADY	≤ 0.2
EQKC	≤ 0.2
RIGI	≤ 0.2
MAYY	≤ 0.2
RIPI	≤ 0.2
AQQE	≤ 0.2
PSRY	≤ 0.2
QASK	≤ 0.2
LSGS	≤ 0.2
IMKA	≤ 0.2
CDSV	≤ 0.2
NKHT	≤ 0.2
VNNG	≤ 0.2
PICV	≤ 0.2
VPIS	≤ 0.2
LFLV	≤ 0.2

Variant	one-hybrid fitness for binding NBS DNA
NVRI	≤ 0.2
LLSR	≤ 0.2
NSWR	≤ 0.2
QVDL	≤ 0.2
SYNW	≤ 0.2
TQFC	≤ 0.2
PKWS	≤ 0.2
QVVF	≤ 0.2
SKNI	≤ 0.2
CSHF	≤ 0.2
KTRC	≤ 0.2
YRPN	≤ 0.2
YYAV	≤ 0.2
PNIW	≤ 0.2
ALRE	0.248
ERVA	≤ 0.2
VDQT	≤ 0.2
KKHR	0.258
PLPH	≤ 0.2
SSDM	≤ 0.2
DYDR	≤ 0.2
ICIN	≤ 0.2
ICKF	≤ 0.2
QNRK	≤ 0.2

Variant	one-hybrid fitness for binding NBS DNA
RAYK	≤ 0.2
ELRA	≤ 0.2
KHET	≤ 0.2
RLYS	0.34
YYGS	≤ 0.2
DHYG	≤ 0.2
PTHA	≤ 0.2
GVRW	≤ 0.2
MVDR	≤ 0.2
QSVE	≤ 0.2
VGKF	≤ 0.2
AVFL	≤ 0.2
VQAS	≤ 0.2
HFKF	≤ 0.2
KLFS	≤ 0.2
SHRS	≤ 0.2
SESD	≤ 0.2
KAKQ	≤ 0.2
RQKI	≤ 0.2
VDQC	≤ 0.2
FIGC	≤ 0.2
ERYG	≤ 0.2
TWIG	≤ 0.2
KENG	≤ 0.2

Variant	one-hybrid fitness for binding NBS DNA
MMHT	≤ 0.2
CPNI	≤ 0.2
AHLS	≤ 0.2
PTYA	≤ 0.2
NEVS	≤ 0.2
QKWE	≤ 0.2
YIVG	≤ 0.2
LSTC	≤ 0.2
ACMR	≤ 0.2
IVKV	≤ 0.2
RCCM	≤ 0.2
QDFM	≤ 0.2
RSIV	≤ 0.2
SWVR	≤ 0.2
LLNC	≤ 0.2
RICA	≤ 0.2
NPTG	≤ 0.2
HMYS	≤ 0.2
QLYY	≤ 0.2
FYTT	≤ 0.2
AGTS	≤ 0.2
SCQI	≤ 0.2
RHHF	≤ 0.2
AELV	≤ 0.2

Variant	one-hybrid fitness for binding NBS DNA
RMKQ	0.238
RMQW	≤ 0.2
SFTF	≤ 0.2
GQRT	≤ 0.2
AKLA	≤ 0.2
QPNY	≤ 0.2
LNNG	≤ 0.2
KLTM	≤ 0.2
CASK	≤ 0.2
QQGD	≤ 0.2
VHNF	≤ 0.2
ESIL	≤ 0.2
NIGG	≤ 0.2
TASR	≤ 0.2
RVIA	≤ 0.2
GLPW	≤ 0.2
RIAQ	≤ 0.2
KTRT	0.44
